Reference: the supplement of paper PMC4604168 (melanoma cell lines)
This is one part of the list. Repeats are few or missing, and single values can be far off.

Key:
Test in all cases: cell count relative to DMSO control; melanoma cells; higher = more viable cells
Conditions in all cases: library dose: standard library concentration; 72 h
A101D = tested on: A101D
A2058 = tested on: A2058
A375 = tested on: A375
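Further: cells treated in 1,536-well plates, then fixed and DAPI-stained, with nuclei counted from automated high-throughput microscope images.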

With `Cc1cc(Nc2cc(N3CCN(C)CC3)nc(/C=C/c3ccccc3)n2)n[nH]1` + CCCS(=O)(=O)Nc1ccc(F)c(C(=O)c2c[nH]c3ncc(Cl)cc23)c1F [PLX4720] (first compound 0.2 µM, partner dose 0.4 µM) the cell count (A101D) was 71.2%, the cell count (A2058) was 93% and the cell count (A375) was 103%.

For `COc1ccc(C2=N[C@@H](c3ccc(Cl)cc3)[C@@H](c3ccc(Cl)cc3)N2C(=O)N2CCNC(=O)C2)c(OC(C)C)c1` [Nutlin-3] + CO[C@@H]1[C@H](N(C)C(=O)c2ccccc2)C[C@H]2O[C@]1(C)n1c3ccccc3c3c4c(c5c6ccccc6n2c5c31)C(=O)NC4 [Midostaurin] (first compound 0.5 µM, partner dose 0.4 µM), the cell count (A101D) was 53.9%, the cell count (A2058) was 67.5% and the cell count (A375) was 74.8%.

Compound `Cc1cn(-c2cc(NC(=O)c3ccc(C)c(Nc4nccc(-c5cccnc5)n4)c3)cc(C(F)(F)F)c2)cn1` [nilotinib] + C=CCNC1=C2C[C@@H](C)C[C@H](OC)[C@H](O)[C@@H](C)/C=C(\C)[C@H](OC(N)=O)[C@@H](OC)/C=C\C=C(/C)C(=O)NC(=CC1=O)C2=O [Tanespimycin] (first compound 1 µM, partner dose 0.01 µM) has a cell count (A101D) of 87.2%, a cell count (A2058) of 95.6% and a cell count (A375) of 108%.

Compound `Cc1cn(-c2cc(NC(=O)c3ccc(C)c(Nc4nccc(-c5cccnc5)n4)c3)cc(C(F)(F)F)c2)cn1` [nilotinib] + NC(=O)c1ccc(N(C(N)=O)c2c(F)cccc2F)nc1-c1ccc(F)cc1F [VX702] (first compound 1 µM, partner dose 2 µM) has a cell count (A101D) of 111%, a cell count (A2058) of 91.4% and a cell count (A375) of 142%.
